How the values were obtained:
[1] = system: Her2-positive cells (KPL-4); experiment: cytotoxicity using FL2 linker variants and photosensitizer Psyche, Cell Counting Kit-8; type: cell-based, Human; details: complex of protein with photosensitizer Psyche (Compound 8) molar ratio 1:2, 10-fold dilutions from 10 μg/mL, 690-nm light 100 J/cm^2, FIGS. 9A to D
Method: Her2-positive cells (KPL-4) were seeded on a 96-well plate to result in a cell count of 1×10^4 cells/well and a culture solution amount of 50 μL/well, and were then cultured overnight. The purified FL2-G5Sx3-del5, FL2-G4Sx1-del5, FL2-G4Sx2-del5 or FL2-G4Sx3-del5 and the photosensitizer Psyche (Compound 8 produced in the above Production Example 6) were mixed with each other to a molar ratio of 1:2 (hereinafter referred to as a “complex”), and 8 series of 10-fold dilution series (including zero concentration) were prepared from 10 μg/mL. After the dilution series had been prepared, the complex was added to the cells, and 24 hours later, the cells were irradiated with an LED emitting a 690-nm light at 100 J/cm^2 from the bottom surface of the culture plate. Thereafter, the cells were cultured for 24 hours. After the complex-containing medium had been removed, the cells were washed with PBS once, and a fresh medium was then added. A comparison was then made in terms of the number of living cells, using Cell Counting Kit-8 (DOJINDO LABORATORIES). A reagent was added in accordance with the dosage and administration described in the instruction manual, and the resulting cells were then incubated at 37° C. in a CO2 incubator for 1.5 hours. After that, the absorbance at 450 nm was measured, and the mean value was then calculated, followed by background correction. Thereafter, the control was set at 100%, and the cell proliferation percentage to the control under individual conditions was calculated. The results are shown in (FIGS. 9A to D).

[2] = target: T1, HER2 (ErbB2); Recombinant Human ErbB2/Her2 Fc Chimera Protein (Homo sapiens, UniProt P04626); experiment: SPR (Biacore T200) binding activity of FL to HER2; details: Her2 immobilized, FL 2-fold dilution series 1 E-08 M to 6.25 E-10 M, FIG. 2
T1 construct: purchased R & D SYSTEMS
Method: The purified FL was analyzed using SPR (Biacore T200, Cytiva), in terms of the binding activity to HER2 (ErbB2). The Her2 antigen (Recombinant Human ErbB2/Her2 Fc Chimera Protein, R & D SYSTEMS) was immobilized on a Sensor Chip CMS (Cytiva) according to an amine coupling method (Amine Coupling Kit, Cytiva). Subsequently, the binding activity was measured using the FL dilution series (2-fold dilution series from 1 E-08 M to 6.25 E-10 M).

[3] = SPR (Biacore T200) binding activity of FL to Psyche, single cycle kinetics; details: FL immobilized, Psyche 2-fold dilution series 1 E-08 M to 6.25 E-10 M, FIG. 3
Method: The purified FL was analyzed using SPR (Biacore T200, Cytiva), in terms of the binding activity to Psyche. The FL was immobilized on a Sensor Chip CMS (Cytiva) according to the amine coupling method, and the binding activity of the FL to Psyche was then analyzed according to a single cycle kinetics method using Psyche dilution series (5 series, 2-fold dilution series from 1 E-08 M to 6.25 E-10 M) as analytes.

Row | binding activity to HER2 [2] | binding activity to Psyche [3] | Molecule | cytotoxicity (cell proliferation percentage to control) [1]
1 |  |  | FL2-G4Sx3-del5: SEQ ID NO: 24; linker of 3 units of 4 glycine residues and 1 serine residue (protein) MVDNKFNKEMRNAYWEIALLPNLNNQQKRAFIRSIYDDPSQSANLLAEAKKLNDAQAPKGGGGSGGGGSGGGGSAEAGITGTWSDQLGDTFIVTAGADGALTGTYENAVGGAESRYVLTGRYDSAPATDGSGTALGWTVAWKNNSKNAHSATTWSGQYVGGADAKINTQWLLTSGTTNANAWKSTLVGHDTFTKVK | light- and concentration-dependent cytotoxicity
2 |  |  | FL2-G4Sx2-del5: SEQ ID NO: 23; linker of 2 units of 4 glycine residues and 1 serine residue (protein) MVDNKFNKEMRNAYWEIALLPNLNNQQKRAFIRSIYDDPSQSANLLAEAKKLNDAQAPKGGGGSGGGGSAEAGITGTWSDQLGDTFIVTAGADGALTGTYENAVGGAESRYVLTGRYDSAPATDGSGTALGWTVAWKNNSKNAHSATTWSGQYVGGADAKINTQWLLTSGTTNANAWKSTLVGHDTFTKVK | light- and concentration-dependent cytotoxicity
3 | stable binding activity | stable binding activity | FL: fusion of Cupid mutant streptavidin (SEQ ID NO: 1) with HER2-recognizing molecule (SEQ ID NO: 2); amino acid sequence SEQ ID NO: 4 (protein) MVDNKFNKEMRNAYWEIALLPNLNNQQKRAFIRSIYDDPSQSANLLAEAKKLNDAQAPKSGGGGGSGGGGGSGGGGGSAEAGITGTWSDQLGDTFIVTAGADGALTGTYENAVGGAESRYVLTGRYDSAPATDGSGTALGWTVAWKNNSKNAHSATTWSGQYVGGADAKINTQWLLTSGTTNANAWKSTLVGHDTFTKVKPSAASHHHHHH | 
4 |  |  | FL2-G4Sx1-del5: SEQ ID NO: 22; linker of 1 unit of 4 glycine residues and 1 serine residue (protein) MVDNKFNKEMRNAYWEIALLPNLNNQQKRAFIRSIYDDPSQSANLLAEAKKLNDAQAPKGGGGSAEAGITGTWSDQLGDTFIVTAGADGALTGTYENAVGGAESRYVLTGRYDSAPATDGSGTALGWTVAWKNNSKNAHSATTWSGQYVGGADAKINTQWLLTSGTTNANAWKSTLVGHDTFTKVK | light- and concentration-dependent cytotoxicity
5 |  |  | FL2-G5Sx3-del5: SEQ ID NO: 10, formed by removing the 11 C-terminal amino acids … from SEQ ID NO: 4 (protein) MVDNKFNKEMRNAYWEIALLPNLNNQQKRAFIRSIYDDPSQSANLLAEAKKLNDAQAPKSGGGGGSGGGGGSGGGGGSAEAGITGTWSDQLGDTFIVTAGADGALTGTYENAVGGAESRYVLTGRYDSAPATDGSGTALGWTVAWKNNSKNAHSATTWSGQYVGGADAKINTQWLLTSGTTNANAWKSTLVGHDTFTKVK | light- and concentration-dependent cytotoxicity
